About 1,200 (2.5%) of roughly 48,000 compounds were called active. Roughly 2% stayed inconclusive and do not appear here.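 Rule for the calls: active = activation of at least 60% and not above a set upper limit (about 1 call in 100 departs from these limits); inconclusive = activation of 40% to 60%, or above that upper limit; inactive = activation under 40%.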 The list shows a part of the results.
biological target: Probable G-protein coupled receptor 32 (Homo sapiens) (UniProt O75388); assay: qHTS for Agonists of Human Resolvin D1 Receptor DRV1; conditions: CHO-K1 GPR32 beta-arrestin PathHunter luminescence, 90 min; at 76.9 µM; active compounds read high; zero percent set by DMSO-only wells; note: 0% is about no effect
Method in brief: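 CHO-K1 cells stably expressing ProLink-tagged GPR32 and Enzyme Activator-tagged beta-arrestin were seeded at 2,500 cells/well overnight, exposed to compounds for 90 min at 37 °C, then read by beta-Gal complementation chemiluminescence after 1 h detection reagent.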

Sequence of UniProt O75388 (O75388 whole entry, looked up): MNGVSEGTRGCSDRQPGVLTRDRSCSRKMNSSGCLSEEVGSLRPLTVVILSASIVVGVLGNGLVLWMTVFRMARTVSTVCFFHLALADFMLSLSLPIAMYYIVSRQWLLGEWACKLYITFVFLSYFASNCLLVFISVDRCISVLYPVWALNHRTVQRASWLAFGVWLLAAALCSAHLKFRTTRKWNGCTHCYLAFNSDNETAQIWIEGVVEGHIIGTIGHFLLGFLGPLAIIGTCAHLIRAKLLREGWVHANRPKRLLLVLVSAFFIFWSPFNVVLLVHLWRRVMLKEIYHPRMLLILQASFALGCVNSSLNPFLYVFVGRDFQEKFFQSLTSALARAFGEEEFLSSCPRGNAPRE

Structure (SMILES) | activation
CCOc1ccc(NC(=O)CC2C(=O)N(c3ccc(OC)cc3)C(=O)N2C2CCCCC2)cc1 (stereo not drawn) | inactive: -7.45%
CCCSc1ncc(Cl)c(C(=O)N2CCN(c3cccc(Cl)c3)CC2)n1 | inactive: -24.2%
COC(=O)c1nnn(CC(=O)Nc2c(C)cccc2C)c1N | inactive: 1.69%
Cc1cc2nc3c(=O)[nH]c(=O)nc-3n(C[C@H](O)[C@H](O)[C@H](O)CO)c2cc1C | inactive: -5.93%
COc1cc(CN(C(=O)Nc2cccc(Cl)c2)c2ccccn2)cc(OC)c1OC | inactive: -13.2%
CC(C)CCNC(=O)c1ccc2nc(CCc3ccccc3)oc2c1 | inactive: -5.83%
CC(C)c1ccc(S(=O)(=O)N2CCN(CC(=O)Nc3ccccc3C(F)(F)F)CC2)cc1 | inactive: -3.05%
CC(=O)c1cccc(NC(=O)CCn2nc(C)c(S(=O)(=O)N(C)C)c2C)c1 | inactive: -10.2%
Cc1ccc(C(=O)NCC(c2cccs2)S(=O)(=O)c2ccccc2)cc1C (stereo not drawn) | inactive: 19%
CC(C)Nc1nc2c(S(=O)(=O)c3cccc(Cl)c3)nnn2c2ccsc12 | inactive: -9.49%
O=C(CCCCCN1CCN(c2ccccc2-c2ccccc2)CC1)NC1CCCc2ccccc21 (stereo not drawn) | inactive: -36.3%
COC(=O)c1sc(N2C(=O)c3oc4ccc(C)cc4c(=O)c3C2c2ccc(O)c(OC)c2)nc1C (stereo not drawn) | inactive: -2.72%
CCOC(=O)c1c(C)oc2nc(C)nc(NCCc3ccc(OC)c(OC)c3)c12 | inactive: -7.39%
COc1ccc(CCNc2nc(SCc3ccccc3F)nc3ccccc23)cc1OC | inactive: -20.4%
COC(=O)c1ccc(C(=O)OC)c(NC(=O)c2c(-c3ccccc3)noc2C)c1 | inactive: -6.84%
CCc1ccc(NC(=O)C2CCCN2S(=O)(=O)c2ccc3nc(-c4ccccc4)[nH]c3c2)cc1 (stereo not drawn) | inactive: 14.2%
CCOC(=O)Cc1c(C)nc2cc(-c3ccc(C(C)(C)C)cc3)nn2c1C | inactive: -12%
Cc1csc2nc(COc3ccc(NC(=O)C(C)C)cc3)cc(=O)n12 | inactive: 0.526%
Cn1c(=O)n(CC(=O)O)c(=O)c2c1nc1n2CCCN1c1ccc(Cl)cc1 | inactive: -5.04%
CCOC(=O)c1c(NC(=O)CSc2nc(-c3ccc(OC)cc3)cc(C(F)(F)F)n2)sc(C)c1C | inactive: 10.2%
Cc1ccccc1NC(=O)CC1NCCNC1=O (stereo not drawn) | inactive: -1.32%

Structure (SMILES) | activation
COc1ccc(-n2ncc(C(=O)N3CCN(C4CCCCC4)CC3)c2C2CCN(C(=O)OC(C)(C)C)CC2)cc1 | inactive: -16.7%
Cc1ccc(NC(=O)c2c3c(nc4ccccc24)C(=O)N(C2CCCCC2)C3)cc1F | inactive: -2.45%
COc1ccc(C2CC(=O)c3cnc4c(-c5ccc(F)cc5)c(C)nn4c3C2)cc1OC (stereo not drawn) | inactive: 26.8%
CCN(CC)S(=O)(=O)c1ccc2c(c1)c(=O)c(C(=O)NCCc1ccccc1)cn2C | inactive: 1.5%
CCN1CCN(c2nc3c(S(=O)(=O)c4ccc(C)cc4)nnn3c3ccsc23)CC1 | inactive: -5.57%
CCN(CC)S(=O)(=O)c1ccc2c(c1)N(CC(=O)NCCc1ccccc1)C(=O)CO2 | inactive: -32%
CCC(Oc1ccccc1)C(=O)Nc1cc(-c2ccccc2F)nn1-c1ccccc1 (stereo not drawn) | inactive: -7.82%
CCOc1ccc2nc(N3CCCC(C(=O)Nc4ccc(CC)cc4)C3)sc2c1 (stereo not drawn) | inactive: -3.27%
CCc1ccc2oc(-c3cccc(NC(=O)COc4ccccc4Cl)c3)nc2c1 | inactive: 0.883%
CCN(CC)C(=O)c1ccc2c(c1)N(Cc1ccccc1F)C(=O)c1ccccc1S2=O (stereo not drawn) | inactive: -25.8%
CCOc1ccc(NC(=O)CSc2nc3ccsc3c(=O)n2CC)cc1 | inactive: -6.71%
COc1cc(NC(=O)C(CC(C)C)N2Cc3ccccc3C2=O)cc(OC)c1 (stereo not drawn) | inactive: -11.6%
Cc1cccc(C(=O)n2nc(-c3cccnc3)nc2NCc2ccc(F)cc2)c1 | inactive: -28.4%
Cc1c(C(=O)NCc2cccc(F)c2)oc2c1-c1[nH]ncc1CC2 | inactive: -11.4%
CCCCOc1ccc(CNC(=O)c2cnc3sc(N4CCCCCC4)nn3c2=O)cc1 | inactive: 8.06%
CCCCNC(=O)CCn1nc(-c2ccc(Cl)cc2)c2ccccc2c1=O | inactive: -3.91%
Cc1ccc(NC(=O)Cn2c(=O)nc(-c3ccccc3)c3ccccc32)cc1 | inactive: -7.59%
Cn1c(=O)[nH]c(=O)c2c1nc(CN1CCN(c3ccccc3)CC1)n2Cc1c(F)cccc1Cl | inactive: -10.7%
Cc1cccc(NC(=O)c2ccc3[nH]c(C)cc(=O)c3c2)c1 | inactive: 3.92%
COc1ccc(-c2cc(C)no2)cc1S(=O)(=O)N1CCCC(C)C1 (stereo not drawn) | inactive: -12.8%
CC(C)CCNC(=O)c1cc(-c2ccc(Br)s2)nc2ccccc12 | inactive: 20.7%

Structure (SMILES) | activation
CC(C)(C)c1ccc(C(=O)Nc2ccc(NC(=O)c3ccc(Cl)c(Cl)c3)cc2)cc1 | inactive: -2.65%
CCC(=O)N1CCc2cc(S(=O)(=O)NC(Cc3ccccc3)C(=O)NCc3ccccc3OC)ccc21 (stereo not drawn) | inactive: -11.8%
CS(=O)(=O)Nc1ccc(-c2nc3ccccc3s2)cc1 | active: 100%
O=C(CSc1ncc2c(n1)-c1cc(Cl)ccc1N(Cc1ccccc1)S2(=O)=O)NCCc1ccccc1 | inactive: 6.23%
CCOC(=O)COc1cc(C)c(Cl)cc1C(=O)c1ccn2nc(-c3ccc(OC)cc3)cc2n1 | inactive: -27.1%
COc1ccc(NC(=O)c2cccn2-c2nnc(N3CCCCC3)s2)c(OC)c1 | inactive: -16.7%
CCc1nn(CC(=O)NCCc2ccc(OC)c(OC)c2)c(=O)c2cc3occc3n12 | inactive: -3.24%
CN(CCCN1c2ccccc2CCc2ccccc21)CC(=O)c1ccc(Cl)cc1 | active: 109%
CCOc1ccc(NC(=O)C2=C(C)C(=O)OC23CCC(C)CC3)cc1 (stereo not drawn) | inactive: -26.2%
COc1ccccc1NC(=O)c1ccc(-c2nc(COc3ccc(C)cc3)c(C)o2)cc1 | inactive: -16.8%
Cc1ccc(NC(=O)Nc2c(C)n(C)n(-c3ccccc3)c2=O)c(Cl)c1 | inactive: -7.58%
CCOC(=O)c1ccc(NC(=O)CSc2nc(-c3ccc(F)cc3)cc(C(F)(F)F)c2C#N)cc1 | inactive: -5.32%
CCOC(=O)c1c(C)[nH]c(C)c1S(=O)(=O)N(C)CC(=O)NCc1ccc(C)cc1 | inactive: 22.9%
CCOc1cccc(CNC(=O)c2ccc(N3CCCC3)c(NC(=O)Nc3ccccc3CC)c2)c1 | inactive: -16.7%
CC(C)c1ccc(NC(=O)Cc2ccc(NC(=O)N3CCCCc4ccccc43)cc2)cc1 | inactive: -15.9%
COc1ccc(C2CC(=O)c3cc(-c4nc(-c5ccc(C)cc5)cs4)c(=O)[nH]c3C2)cc1 (stereo not drawn) | inactive: -34.4%
CCC1CN(C(=O)NCc2ccc(F)cc2)c2cc(Cl)ccc2O1 (stereo not drawn) | inactive: -9.76%
CCCCOc1ccc(CNC(=O)CN2C(=O)CCn3nc(-c4cn(C)c5ccccc45)cc32)cc1 | inactive: 39%
COc1ccc(NC(=O)C2CCCN(S(=O)(=O)c3c(C)[nH]c(=O)[nH]c3=O)C2)cc1 (stereo not drawn) | inactive: -13.1%
CSC(=N)N | inactive: -7.71%
COc1ccc(S(=O)(=O)NCCc2csc(-c3cccc(F)c3)n2)cc1OC | inactive: 18.7%

Structure (SMILES) | activation
COc1cc(OC)c(NC(=O)CC(C)S(=O)(=O)c2ccc3c(c2)NC(=O)CO3)cc1Cl (stereo not drawn) | active: 73.4%
CCOc1ccc(/C=C/C(=O)Nc2sc3c(c2C(=O)OC)CCCC3)cc1 | inactive: -2.06%
Nc1nc(Nc2cccc(Cl)c2)sc1C(=O)c1ccc(F)cc1 | inactive: -20.2%
COc1ccc(-c2nn(-c3ccc(C)c(Cl)c3)c3c2cnc2cc(OC)c(OC)cc23)cc1 | inactive: -11.5%
Cc1ccc(S(=O)(=O)CC(=O)Nc2nc3c(C)cccc3s2)cc1 | inactive: 1.09%
Cc1ccc(-c2c3c(=O)n(C)c(=O)n(C)c3c3cnc4ccccc4n23)cc1 | inactive: -11%
CSc1ccc(/C=C/c2nc3ccccc3n2S(=O)(=O)c2ccc(Br)cc2)cc1 | inactive: -11.2%
Cc1ccc(N2CCN(Cc3nnc(-c4ccccc4F)o3)CC2)c(C)c1 | inactive: -6.77%
CC(=O)N1CCc2cc(Br)cc(S(=O)(=O)NCCc3cccc(C)c3)c21 | inactive: -2.8%
CCOC(=O)c1c(C)[nH]c(C)c1S(=O)(=O)N1CCCC(C(=O)Nc2cccc(CC)c2)C1 (stereo not drawn) | inactive: 11.7%
COc1cccc(NC(=O)/C(C#N)=C/c2c(C)n(Cc3ccccc3)c3ccccc23)c1 | inactive: -22%
CCOc1ccc(NC(=O)CCc2c(C)nc3nc(-c4cc(OC)cc(OC)c4)nn3c2C)cc1 | inactive: -3.29%
COc1ccccc1Nc1nc(N)nc(N)c1S(=O)(=O)c1ccccc1 | inactive: 4.23%
COc1ccc(-n2nnc(-c3nsc(NC(=O)c4cccc(C)c4)n3)c2C)cc1OC | inactive: 21.3%
COc1ccc(-c2[nH]c3c(c2-c2c(-n4cccc4)n(C)c(=O)[nH]c2=O)c(=O)[nH]c(=O)n3C)cc1F | inactive: -4.39%
Fc1ccc(C(NCCc2ccc(Cl)cc2)c2nnc(-c3ccccc3Cl)o2)cc1 (stereo not drawn) | inactive: -36.6%
O=C(Nc1ccc(Cl)c(C(F)(F)F)c1)c1nc2ccccc2nc1N1CCCCC1 | inactive: -0.921%
CSc1ncc(Cl)c(C(=O)N(C)c2ccccc2)n1 | inactive: 2.07%
CCN1CCN(c2ncc3c(n2)CCN(Cc2cccc(F)c2F)C3)CC1 | inactive: -24.3%
COc1cccc(NC(=O)Cn2nnc(C(=O)NCc3ccc4c(c3)OCO4)c2N)c1 | inactive: -0.0063%

From PubChem BioAssay AID1346428 (National Center for Advancing Translational Sciences (NCATS), 2018)
